# ± gives the standard deviation of the averaged measurements. Restriction of a single-cycle SIVsab GFP reporter by TRIM5α v1-loop variants in CRFK cells. Human variants: read share among cells still uninfected after two challenges over input, higher = gained restriction. Rhesus variants: share among infected cells over input, higher = lost restriction. Reporter dose not given per row. No active / inactive call per row; the paper calls a change when both replicates lie above its controls (mean + 2 SD of stop or wild-type variants, or the top frameshift score). Residues outside the varied loop are taken from Swiss-Prot. The paper reads the human single-substitution scores as noise; they and the rhesus combinations repeat poorly (rank correlation 0.3 to 0.4), indel scores repeat only for the top variants, rhesus substitutions well (0.9).
# Test system: SIVsab (simian immunodeficiency virus of sabaeus monkeys), single-cycle GFP reporter, in CRFK cells
# Test: enrichment among uninfected cells over input (fold); higher = stronger restriction
# Details: library: human / rhesus combinations
# Experimental: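 Pools of CRFK cells expressing variants of the TRIM5α v1 loop were challenged with the single-cycle reporter, sorted by GFP and sequenced; mean of two replicates.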
row,Sequence,enrichment
1,"MASGILVNVKEEVTCPICLELLTQPLSLDCGHSFCQACLTANHKKSMLDKGESSCPVCRISYQPENIRPNRHVANIVEKLREVKLSPEGQKVDHCARHGEKLLLFCQEDGKVICWLCERSQEHRGHHTFLTEEVAREYQVKLQAALEMLRQKQQEAEELEADIREEKASWKTQIQYDKTNVLADFEQLRDILDWEESNELQNLEKEEEDILKSLTNSETEMVQQTQSLRELISDLEHRLQGSVMELLQGVDGVIKRTENVTLKKPETFPKNQRRVFRAPDLKGMLEVFRELTDVRRYWVDVTVAPNNISCAVISEDKRQVSSPKPQIIYGARGTLYTFQSFTNFNYCTGILGSQSITSGKHYWEVDVSKKTAWILGVCAGFQPDAMCNIEKNENYQPKYGYWVIGLEEGVKCSAFQDSSFHTPSVPFIVPLSVIICPDRVGVFLDYEACTVSFFNITNHGFLIYKFSHCSFSQPVFPYLNPRKCGVPMTLCSPSS [human TRIM5α, 330-340 = GARGTLYTFQSFT]",0.138 ± 0.026
2,"MASGILVNVKEEVTCPICLELLTQPLSLDCGHSFCQACLTANHKKSMLDKGESSCPVCRISYQPENIRPNRHVANIVEKLREVKLSPEGQKVDHCARHGEKLLLFCQEDGKVICWLCERSQEHRGHHTFLTEEVAREYQVKLQAALEMLRQKQQEAEELEADIREEKASWKTQIQYDKTNVLADFEQLRDILDWEESNELQNLEKEEEDILKSLTNSETEMVQQTQSLRELISDLEHRLQGSVMELLQGVDGVIKRTENVTLKKPETFPKNQRRVFRAPDLKGMLEVFRELTDVRRYWVDVTVAPNNISCAVISEDKRQVSSPKPQIIYGARGTRFTFPTFVNFNYCTGILGSQSITSGKHYWEVDVSKKTAWILGVCAGFQPDAMCNIEKNENYQPKYGYWVIGLEEGVKCSAFQDSSFHTPSVPFIVPLSVIICPDRVGVFLDYEACTVSFFNITNHGFLIYKFSHCSFSQPVFPYLNPRKCGVPMTLCSPSS [human TRIM5α, 330-340 = GARGTRFTFPTFV]",0.15 ± 0.11
3,"MASGILVNVKEEVTCPICLELLTQPLSLDCGHSFCQACLTANHKKSMLDKGESSCPVCRISYQPENIRPNRHVANIVEKLREVKLSPEGQKVDHCARHGEKLLLFCQEDGKVICWLCERSQEHRGHHTFLTEEVAREYQVKLQAALEMLRQKQQEAEELEADIREEKASWKTQIQYDKTNVLADFEQLRDILDWEESNELQNLEKEEEDILKSLTNSETEMVQQTQSLRELISDLEHRLQGSVMELLQGVDGVIKRTENVTLKKPETFPKNQRRVFRAPDLKGMLEVFRELTDVRRYWVDVTVAPNNISCAVISEDKRQVSSPKPQIIYQAPGTLFTFQTLTNFNYCTGILGSQSITSGKHYWEVDVSKKTAWILGVCAGFQPDAMCNIEKNENYQPKYGYWVIGLEEGVKCSAFQDSSFHTPSVPFIVPLSVIICPDRVGVFLDYEACTVSFFNITNHGFLIYKFSHCSFSQPVFPYLNPRKCGVPMTLCSPSS [human TRIM5α, 330-340 = QAPGTLFTFQTLT]",0.0934 ± 0.06
4,"MASGILVNVKEEVTCPICLELLTQPLSLDCGHSFCQACLTANHKKSMLDKGESSCPVCRISYQPENIRPNRHVANIVEKLREVKLSPEGQKVDHCARHGEKLLLFCQEDGKVICWLCERSQEHRGHHTFLTEEVAREYQVKLQAALEMLRQKQQEAEELEADIREEKASWKTQIQYDKTNVLADFEQLRDILDWEESNELQNLEKEEEDILKSLTNSETEMVQQTQSLRELISDLEHRLQGSVMELLQGVDGVIKRTENVTLKKPETFPKNQRRVFRAPDLKGMLEVFRELTDVRRYWVDVTVAPNNISCAVISEDKRQVSSPKPQIIYQARGTRYTFPSLVNFNYCTGILGSQSITSGKHYWEVDVSKKTAWILGVCAGFQPDAMCNIEKNENYQPKYGYWVIGLEEGVKCSAFQDSSFHTPSVPFIVPLSVIICPDRVGVFLDYEACTVSFFNITNHGFLIYKFSHCSFSQPVFPYLNPRKCGVPMTLCSPSS [human TRIM5α, 330-340 = QARGTRYTFPSLV]",0.324 ± 0.18

# Same assay, conditions: library: insertions and deletions
row,Sequence,enrichment
1,"MASGILVNVKEEVTCPICLELLTQPLSLDCGHSFCQACLTANHKKSMLDKGESSCPVCRISYQPENIRPNRHVANIVEKLREVKLSPEGQKVDHCARHGEKLLLFCQEDGKVICWLCERSQEHRGHHTFLTEEVAREYQVKLQAALEMLRQKQQEAEELEADIREEKASWKTQIQYDKTNVLADFEQLRDILDWEESNELQNLEKEEEDILKSLTNSETEMVQQTQSLRELISDLEHRLQGSVMELLQGVDGVIKRTENVTLKKPETFPKNQRRVFRAPDLKGMLEVFRELTDVRRYWVDVTVAPNNISCAVISEDKRQVSSPKPQIIYGARGTRYQTFVNFNYCQTFVNFNYCTGILGSQSITSGKHYWEVDVSKKTAWILGVCAGFQPDAMCNIEKNENYQPKYGYWVIGLEEGVKCSAFQDSSFHTPSVPFIVPLSVIICPDRVGVFLDYEACTVSFFNITNHGFLIYKFSHCSFSQPVFPYLNPRKCGVPMTLCSPSS [human TRIM5α, 9-codon duplication at 337]",1.76 ± 1.9
2,"MASGILVNVKEEVTCPICLELLTQPLSLDCGHSFCQACLTANHKKSMLDKGESSCPVCRISYQPENIRPNRHVANIVEKLREVKLSPEGQKVDHCARHGEKLLLFCQEDGKVICWLCERSQEHRGHHTFLTEEVAREYQVKLQAALEMLRQKQQEAEELEADIREEKASWKTQIQYDKTNVLADFEQLRDILDWEESNELQNLEKEEEDILKSLTNSETEMVQQTQSLRELISDLEHRLQGSVMELLQGVDGVIKRTENVTLKKPETFPKNQRRVFRAPDLKGMLEVFRELTDVRRYWVDVTVAPNNISCAVISEDKRQVSSPKPQIIYGARGTRYQTFYCTGILGSQSITSGKHYWEVDVSKKTAWILGVCAGFQPDAMCNIEKNENYQPKYGYWVIGLEEGVKCSAFQDSSFHTPSVPFIVPLSVIICPDRVGVFLDYEACTVSFFNITNHGFLIYKFSHCSFSQPVFPYLNPRKCGVPMTLCSPSS [human TRIM5α, 4-codon deletion at 340]",2.23 ± 1.9
3,"MASGILVNVKEEVTCPICLELLTQPLSLDCGHSFCQACLTANHKKSMLDKGESSCPVCRISYQPENIRPNRHVANIVEKLREVKLSPEGQKVDHCARHGEKLLLFCQEDGKVICWLCERSQEHRGHHTFLTEEVAREYQVKLQAALEMLRQKQQEAEELEADIREEKASWKTQIQYDKTNVLADFEQLRDILDWEESNELQNLEKEEEDILKSLTNSETEMVQQTQSLRELISDLEHRLQGSVMELLQGVDGVIKRTENVTLKKPETFPKNQRRVFRAPDLKGMLEVFRELTDVRRYWVDVTVAPNNISCAVISEDKRQVSSPKTRYQTFVNFNYCTGILGSQSITSGKHYWEVDVSKKTAWILGVCAGFQPDAMCNIEKNENYQPKYGYWVIGLEEGVKCSAFQDSSFHTPSVPFIVPLSVIICPDRVGVFLDYEACTVSFFNITNHGFLIYKFSHCSFSQPVFPYLNPRKCGVPMTLCSPSS [human TRIM5α, 9-codon deletion at 325]",0.641 ± 0.084
4,"MASGILVNVKEEVTCPICLELLTQPLSLDCGHSFCQACLTANHKKSMLDKGESSCPVCRISYQPENIRPNRHVANIVEKLREVKLSPEGQKVDHCARHGEKLLLFCQEDGKVICWLCERSQEHRGHHTFLTEEVAREYQVKLQAALEMLRQKQQEAEELEADIREEKASWKTQIQYDKTNVLADFEQLRDILDWEESNELQNLEKEEEDILKSLTNSETEMVQQTQSLRELISDLEHRLQGSVMELLQGVDGVIKRTENVTLKKPETFPKNQRRVFRAPDLKGMLEVFRELTDVRRYWVDVTVAPNNISCAVISEDKRQVSSPKPQIIYGARGTRYQTFVNFNNFNYCTGILGSQSITSGKHYWEVDVSKKTAWILGVCAGFQPDAMCNIEKNENYQPKYGYWVIGLEEGVKCSAFQDSSFHTPSVPFIVPLSVIICPDRVGVFLDYEACTVSFFNITNHGFLIYKFSHCSFSQPVFPYLNPRKCGVPMTLCSPSS [human TRIM5α, 3-codon duplication at 341]",0.362 ± 0.14
